Laboratory results: PubChem BioAssay AID1508642 (National Center for Advancing Translational Sciences (NCATS), 2021)
The whole screen tested about 43,000 compounds, of which about 200 (0.47%) were called active. About 12% were inconclusive and are not listed. The call rests on the fitted dose curve; in most records, active means well fitted cell-killing curve with a large enough effect; inconclusive means small, poorly fitted or top-dose-only effect, or effect the other way; inactive means flat fitted curve, though single readings scatter. This is one part of the list.

Assay: Cell viability qHTS assay in S16 Pmp22-F2sN cells; further: nearly all actives have a fitted effect of over 65% in size
Conditions: S16 Pmp22-F2sN Schwann cells (luciferase reporters placed in the Pmp22 gene) viability, CellTiter-Glo, 24 h; series mostly up to 57.5 µM; activity change, negative = cytotoxicity: at the top concentration
Outline: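 Luminescence from CellTiter-Glo, read by CCD camera after a 15 min room-temperature incubation, served as the viability signal. Reporter Schwann cells (S16 Pmp22-F2sN) had been treated with pin-transferred compounds for 24 h at 37C.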
On the % scale 0 is the no-effect control and ±100 the full control effect.

| Compound | activity change, negative = cytotoxicity |
| --- | --- |
| O=C(NC1CCN(Cc2ccccc2)CC1)c1ccc(Cn2c(=O)c3ccccc3n(Cc3cccc(F)c3)c2=O)cc1 | inactive: 10.5% |
| COCCn1c(=N)c(C(=O)NC2CCCC2)cc2c(=O)n3cc(C)ccc3nc21 | inactive: 16.5% |
| O=C(Nc1ccccc1C(=O)OCc1cc(=O)n2ccsc2n1)c1ccccc1Cl | inactive: 0.483% |
| CCOC(=O)CCNC(=O)N1CCN(S(=O)(=O)c2ccc3c(ccn3C)c2)CC1 | inactive: 0.0973% |
| Cc1ccc(CNC(=O)Cn2c(-c3cccs3)cc3cc(Cl)ccc32)cc1 | inactive: -28.9% |
| Cc1ccc(CNC(=O)c2ccc3c(c2)NC(=O)C(CS(=O)(=O)Cc2cccc(F)c2)N3)cc1 (stereo not given) | inactive: -29.6% |
| Cc1ccc(N2C(=O)C(CC(=O)Nc3ccc(F)cc3)N(Cc3ccc4c(c3)OCO4)C2=O)cc1 (stereo not given) | inactive: 6.01% |
| CC(=O)c1ccc(NC(=O)c2cc3c(=O)oc4ccc(C)cc4c3s2)cc1 | inactive: -14.6% |
| Cc1ccc(Sc2ccc(N3CCC(C(=O)Nc4ccc(Cl)cc4)CC3)nn2)cc1 | inactive: 14.8% |
| CCc1ccc(C(=O)c2cn(CC(=O)NCc3ccc(C)cc3)c3nc(C)ccc3c2=O)cc1 | inactive: 5.01% |
| Cc1cccc(N2C(=O)C(CC(=O)Nc3cccc(F)c3)N(CCc3ccncc3)C2=O)c1 (stereo not given) | inactive: 1.88% |
| Cc1ccc(C(=O)Nc2ccc(S(=O)(=O)N(Cc3ccccc3)c3ccccc3)cc2)cc1 | inactive: 5% |
| COc1ccc(NC(=O)C2=CC(c3ccc4c(c3)OCO4)=NS(=O)(=O)N2C)cc1OC | inactive: 1.79% |
| O=S(=O)(c1ccc(Cl)cc1)c1nc(-c2ccccc2F)oc1NCc1ccccc1 | inactive: -6.3% |
| O=C(CSCn1nnc2c(=O)[nH]c(Cc3ccc(F)cc3)nc21)Nc1ccccc1 | inactive: -1.67% |
| Cc1c(C(=O)NCc2ccc(Cl)cc2)sc2nc3n(c(=O)c12)CCC3 | inactive: 0.729% |
| COc1ccc(-c2nc3n(n2)C(c2ccccc2)C(C(=O)Nc2cccnc2)=C(C)N3)cc1 (stereo not given) | inactive: 0.479% |
| COCCNC(=O)CN1C(=O)CCn2nc(-c3cn(C)c4ccccc34)cc21 | inactive: 5.11% |
| CCOC(=O)N1CCN(CCC(=O)Nc2cccc(F)c2)CC1 | inactive: 8.08% |
| COc1ccc2c(Sc3ccc(C)cc3)c(C(=O)NC(C)c3ccccc3)[nH]c2c1 (stereo not given) | inactive: 0.235% |

| Compound | activity change, negative = cytotoxicity |
| --- | --- |
| COc1cc([C@@H]2Nc3c(F)cccc3[C@@H]3C=CC[C@@H]32)cc(Br)c1OC | inactive: -0.514% |
| Cc1c(C(=O)O)oc2c1-c1nn(Cc3ccccc3Cl)cc1CC2 | inactive: -8.5% |
| Cc1c(NC(=O)Cc2ccccc2)cccc1-c1nc2cccnc2s1 | inactive: -1.07% |
| CCOC(=O)c1c(C)[nH]c(C)c1S(=O)(=O)N1CCC(C(=O)NCc2ccc(OC)cc2)CC1 | inactive: 3.04% |
| CCOc1ccc(NC(=O)c2cc3nc(-c4ccc(OC)cc4)cc(C(F)(F)F)n3n2)cc1 | inactive: -1.5% |
| Cn1nc(-c2ccccc2F)c2cc(C(=O)N3CCN(c4ccccc4F)CC3)sc21 | inactive: -7.68% |
| COC(=O)c1ccc2c(=O)n(CCCCCC(=O)N3CCN(c4cccc(C)c4C)CC3)c(=O)[nH]c2c1 | inactive: -8.89% |
| COCCCNc1nc2c(-c3cccc(Br)c3)nnn2c2ccccc12 | inactive: 20.3% |
| CCCCOc1ccc(C(=O)Nc2ccc3c(c2)N(C(C)=O)CCC3)cc1 | inactive: 7.59% |
| Cc1ccc(S(=O)(=O)N2CCCc3cc(NC(=O)c4cccc(Cl)c4)ccc32)cc1 | inactive: -23.8% |
| Cc1cccc(-c2cc(-c3ccccc3)nc(SCC(=O)Nc3ccccc3)c2C#N)c1 | inactive: 4.57% |
| Cc1ccc(S(=O)(=O)N(CC(O)Cn2c3ccccc3c3ccccc32)c2cccc(C(=O)NCCO)c2)cc1 (stereo not given) | inactive: -18.4% |
| CCC(Cn1nnc2ccccc2c1=O)NC(=O)Nc1ccccc1Cl (stereo not given) | inactive: -9.39% |
| CCS(=O)(=O)N1CCc2cc(C(=O)NCc3ccc(C)cc3)ccc21 | inactive: -10.1% |
| O=C(CSc1nc2c([nH]c3ccccc32)c(=O)n1-c1ccc(F)cc1)Nc1ccc2c(c1)OCCO2 | inactive: 3.64% |
| COc1ccc2c(CNCc3cccs3)c(C(=O)O)n(Cc3ccccc3C)c2c1 | inactive: 2.36% |
| COc1cc(OC)c(N(C)C(=O)c2cc3c(s2)-c2ccccc2OC3)cc1Cl | inactive: 0.624% |
| O=C(OCC1CCCO1)c1ccc2c(c1)N(Cc1ccc(F)cc1)C(=O)c1ccccc1S2(=O)=O (stereo not given) | inactive: 5.54% |
| CCC(Sc1nc2ncccc2[nH]1)C(=O)Nc1ccccc1F (stereo not given) | inactive: -25.9% |
| Cc1ccc(Cl)cc1NC(=O)N1CCC(CN2CCc3ccccc3C2)CC1 | inactive: -15.5% |

| Compound | activity change, negative = cytotoxicity |
| --- | --- |
| CCC(=O)NCc1nc2ccccc2n1Cc1ccccc1 | inactive: 10.6% |
| CCNC(=O)CC1C(=O)N(c2ccc(F)cc2)C(=O)N1CCOC (stereo not given) | inactive: 6.66% |
| COc1ccccc1CNC(=O)c1ccc(Cn2c(SCc3ccccc3)nc3cccnc32)cc1 | inactive: -17.6% |
| CCOc1ccc(C(=O)N2CCC(c3nnc(-c4ccccc4OC)o3)CC2)cc1 | inactive: 8.96% |
| N#Cc1ccccc1CN1C(=O)c2ccccc2Sc2ccc(C(=O)OCc3ccco3)cc21 | inactive: 5.46% |
| O=C(CCc1ccccc1)NCc1nc2cccnc2n1Cc1ccc(F)cc1 | inactive: 16.7% |
| CCOc1ccc(NC(=O)CCc2c(C)nc3nc(C)nn3c2C)cc1 | inactive: 13.8% |
| CCOC(=O)c1c(C)oc2nc(C)nc(NCCCN3CCN(c4ccccc4)CC3)c12 | inactive: 0.336% |
| COC(=O)C(CCSC)NC(=O)C1CCN(c2ncnc3c2nc2n3CCCCC2)CC1 (stereo not given) | inactive: -2.56% |
| COc1ccc(NC(=O)CN2CCN(Cc3ccccc3)S2(=O)=O)c(OC)c1 | inactive: 5.35% |
| CCOc1ccc(OCC)c(NC(=O)c2cc(S(=O)(=O)N3CCCC3)cn2C)c1 | inactive: -1.66% |
| COc1ccccc1N1CCN(c2ccc(NC(=O)c3ccc(C)cc3)cc2C(=O)O)CC1 | inactive: 3.1% |
| Cc1c(CNC2CCCCC2)c(C(=O)O)c(C)n1Cc1c(F)cccc1Cl | inactive: 12.7% |
| Cc1ccc(NC(=O)CCCn2c(=O)c3cccn3c3ccccc32)c(Cl)c1 | inactive: -20.9% |
| COc1cc(OC)c(NC(=O)c2csc3c2CCC(C)C3)cc1Cl (stereo not given) | inactive: -2.71% |
| CCOc1ccccc1NC(=O)Cn1c(=O)n(CCC(=O)NCc2ccc3c(c2)OCO3)c(=O)c2ccccc21 | inactive: -0.897% |
| COc1ccccc1CNC(=O)c1cc2cc3ccc(Cl)cc3nc2o1 | inactive: 0.69% |
| COc1ccc(CCNC(=O)CCc2c(C)nc3c(c(C)nn3-c3ccc(C)c(C)c3)c2C)cc1OC | inactive: 10.1% |
| COc1ccc(CNC(=O)c2cnc3sc(N4CCOCC4)nn3c2=O)cc1 | inactive: 1.51% |
| O=C(CSC1=Nc2ccccc2C2=NC(CCC(=O)NC3CCCCC3)C(=O)N12)Nc1cccc(C(F)(F)F)c1 (stereo not given) | inactive: -29.1% |
